From the RNAGym collection of RNA variant scans (doi:10.1073/pnas.2313332121)
This sample is rich in variants without activity.

B1: TPR 5TU (parent)
chain: GGAUCUUCUCGAUCUAACAAAAAAGACAAAUCUGCCACAAAGCUUGAGAGCAUCUUCGGAUGCAGAGGCGGCAGCCUUCGGUGGCGCGAUAGCGCCAACGUUCUCAACUAUGACACGCAAAACGCGUGCUCCGUUGAAUGGAGUUUAUCAUG

Variants of: B1
Assay: polymerase ribozyme fitness, log enrichment relative to wild type (log ratio); higher = more active; in vitro selection for triplet polymerase activity
Procedure, shortened: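 The heterodimeric triplet polymerase ribozyme's subunits were each mutagenized into PCR-built libraries and transcribed. Every library was selected once, in triplicate, by annealing with a biotinylated primer, the partner subunit and triplets, incubating frozen at −7 °C, gel-excising extended constructs, capturing on streptavidin beads and running RT-PCR. Input and output libraries were Illumina-sequenced, with genotypes kept only at ≥10 input reads and ≥1 read per output. Fitness, from inverse-variance-weighted replicate averages, is the base-2 logarithm of genotype enrichment over wild-type enrichment.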

Polymerase ribozyme fitness (log ratio), -1.17:
U15G A49G C87U G136A

Polymerase ribozyme fitness (log ratio), -3.96:
U15G G59U U135G

Polymerase ribozyme fitness (log ratio), -0.367:
U15G A17U

Polymerase ribozyme fitness (log ratio), -0.257:
U15G U55A

Polymerase ribozyme fitness (log ratio), -0.404:
U15C A37U C118U

Polymerase ribozyme fitness (log ratio), -0.922:
U15G A47C

Polymerase ribozyme fitness (log ratio), -2.01:
U15C A47C C54U A89U C95G

Polymerase ribozyme fitness (log ratio), -2.73:
U15C C38A U61A C87U A122G

Polymerase ribozyme fitness (log ratio), -0.774:
U15G U53A

Polymerase ribozyme fitness (log ratio), -3.98:
U15G A16C A21U A26C C103U

Polymerase ribozyme fitness (log ratio), -0.702:
U15C C87U A142U

Polymerase ribozyme fitness (log ratio), -1.59:
U15G A52U

Polymerase ribozyme fitness (log ratio), -2.3:
A16C A20C C85A G141C

Polymerase ribozyme fitness (log ratio), -2.28:
U15G G71U

Polymerase ribozyme fitness (log ratio), -1.57:
U15G A41U A73G
U15G G84A

Polymerase ribozyme fitness (log ratio), -4.13:
U15G C27A

Polymerase ribozyme fitness (log ratio), ≤ -4.2:
U15C A24U A40G G68A C85A U139G
U15C A26U C57G G59U C87A G88A A107U U148G
U15C A26U C96U C108A U135A
U15C A28U C35A G92A G112U U151A
U15C A30U U31C C36G A40U C51U
U15C A41C A89G C96A C118U U135G
U15C A49C U77G C85A U109C
U15C A64C G71A G100A C118U
U15C A66C C85U C93A C105G C108A G124A
U15C A91U
U15C C27G A52C G62A C76A G84C G141C U145C
U15C C54A G62A U78A G88C A113C A150U
U15C C75A C96G
U15C C75A G80C C99G
U15C C75U U101G C103A
U15C C79A G80U A121U C149U
U15C G25C A39U C93U
U15C G46A C63A C87G C96U C103A A106G G117A A121U C149A
U15C G48A C87A U101G
U15C G50A A64G A73G C96U U102G
U15C G50C C51G A52G C87G C108A
U15C G80C C93G A115C U144C
U15C U56G C79A G143U
U15G A16U A47C C85U C118G G133C U145C
U15G A16U G48A G59U U61A C75A G83C
U15G A17C A21G A49U C75A U101G
U15G A17C G25U U45A G59C A60C A106C U134G
U15G A17G A28C C43A U56A A91U C125U U144G
U15G A17U C79G G80A G81U G92A G124A A147U
U15G A19G A49C A73U C114U
U15G A19U A20U A29G U56A C57A C63U G94A U145G
U15G A20C C69G U130G
U15G A20U A37G U45A G50C G70U C95U C118G G141C A147C G152A
U15G A20U C87G G94C C125A G133A U134A U139C
U15G A20U G25U C87U C103G U104G A121G G126U U134C C149A
U15G A21C A26U C38G G92A A113C
U15G A21C A49C C54U G86A
U15G A21U A73U C79G C85U U109G U144A
U15G A21U C35U A41C G50A G92A G117A A122U
U15G A21U U31C C54U A66C A122U G133A
U15G A22C A60G A73U C76G C103A A122U U151A
U15G A22C A66G G86A G88C U101A C131U A150U U151A
U15G A23C U44A C93U C108G U144C
U15G A24U G25C C38G C54G C76G G81C C93A C132U
U15G A26C C35A G50C C93A G94U C96A A98G
U15G A26C G48A G68A C75A U90G C93G
U15G A26C U31C U44G G46A C118U C129A
U15G A26U C57A C72G A91U
U15G A28C A60G C63U C85U C123U
U15G A28G A29U A49U G83U A98U
U15G A28G A41C G46C G48A C76U G83U A97G U145C A150C
U15G A28G C35U U55G U56G C95A A150C
U15G A28U C85A G86A G92A A106G A115C
U15G A28U G46C C57U C85A G86U U90A C95U C105U
U15G A29C G100A
U15G A29C U31G G88C C116U
U15G A29U A91G U102G A110U A120U
U15G A29U C43A G94U
U15G A29U C103A
U15G A29U G100U G124C
U15G A30C C57G U77C C99G C116G U151C
U15G A30C U82G C87A C99G A110U A121U G136A
U15G A37U G42C U53G A60U U61G C79A G86A G128C U146G
U15G A39U C43U G50C G94A
U15G A39U U82G G84A G112U
U15G A40C G42A A49G G62C C93A
U15G A41U U56A U61A C76G C93G A115U A150U
U15G A47U A66G G70U A106G G133A U139C
U15G A47U A73U U82C C93G G126U U148A
U15G A49C G50A U78A A91C C93A G126U
U15G A49G G50A C105A C118A C149G G152U
U15G A52G U55A C75U G88C U90C A138U
U15G A60C G88C
U15G A64G G84A C103U
U15G A66C C87U C95U U104G
U15G C18A A23C A60G U104G C123G
U15G C18G A20G A49C A52G C87A G92U
U15G C18G G46U A47U G50A G58A G81A G83U A115C
U15G C18G G50C U53G G92A U148G
U15G C18G U45A A60C U61A G74U A91G U134C
U15G C27A C69U G70U G88U C93A G143A
U15G C32A G88A A97G
U15G C35A C87U A120C C149U
U15G C35U G70A A91G G92U
U15G C35U U45A A49U A52G C93U U104G C105G C116G
U15G C36G U111G G124A G141C A150U
U15G C38G A107U A113U
U15G C38U G67C C76A G80A
U15G C51U G86U A89U C114U
U15G C76A C87G U90A C103A U134A
U15G C76G A107C U148A G152A
U15G C76G G86C A122U G133C A142G U148G
U15G C76U U78G G80A G88U
U15G C79U G84U C99U U104G
U15G C87G A115G C116G
U15G C87U G94A A97C A98G G133U A142U
U15G C93U C108U A110U C118G U139A G141U
U15G G25C A66G A73G G140A A142U
U15G G34A C75A A150U
U15G G42C C54G C93A U102G C116U G117C U135C U145G G152U
U15G G42U A47U C87A C132U A137C
U15G G48C G94A U139C G143U
U15G G68U C87U G88A G152A
U15G G74A C96U C125A G141U
U15G G83C C95U C96A C103G
U15G G88A C149G
U15G G88C A98G U102C U127C
U15G U31A C38G C43A G92A G94U
U15G U31A G42A G48A C63A A64C G86U G94A
U15G U31A G80A G86U C105U C114U
U15G U31A U45A U82C G133U A138G G152C
U15G U31G A40U C57A C95G C125U G140U
U15G U44G A73C G74U G80C C93U G141C
U15G U55A A60U C76G C96A
U15G U55A C79A C93A C95U C105U A150C
U15G U61A A107C C114U G140U
U15G U77C G80U G86C A121U U127A G143U
U15G U77G C93G G152C
A16C A17C A24C U82G C93G A115C U134G
A16C A17C U31G G50C C87A G88C C95G U135C
A16C A17G C27A A47G A60U G86A C87G A115G
A16C A17G C76G C96A A107G
A16C A17U A47C U53A U101G
A16C A19U A29U A39G A106U G128U U135G
A16C A19U A73G C87A U148G G152U
A16C A20C U55A G74A G88U C93U A98G A106G A119U G126U
A16C A20U G59U G74U A120U U134G
A16C A21U A39C U44A U45A A49G G84A G126U
A16C A22U C35G A89C G100C
A16C A22U G59U C75G
A16C A22U G67C
A16C A24G A40G C118U
A16C A24G A47C C85G A97C A120G

Polymerase ribozyme fitness (log ratio), -2.29:
U15G C51U A98U A115G G136A

Polymerase ribozyme fitness (log ratio), -1.62:
U15C U61A A89G A98G

Polymerase ribozyme fitness (log ratio), -3.38:
U15G C79G
A16C A20G C27U A60G G117A

Polymerase ribozyme fitness (log ratio), 0.662:
U15C C35U U56A A89C

Polymerase ribozyme fitness (log ratio), 0.475:
U15G A24U A60G G92U

Polymerase ribozyme fitness (log ratio), 0.45:
U15C A122U

Polymerase ribozyme fitness (log ratio), -1.39:
U15C C27U U53A A122G

Polymerase ribozyme fitness (log ratio), -3.78:
U15G U53A A60C G83A C85U

Polymerase ribozyme fitness (log ratio), -2.24:
U15C A41G U61G C99U

Polymerase ribozyme fitness (log ratio), -1.13:
U15G G59A G83U C118G

Polymerase ribozyme fitness (log ratio), -0.302:
U15G C96A

Polymerase ribozyme fitness (log ratio), -0.684:
U15C U145C A150G

Polymerase ribozyme fitness (log ratio), -3.99:
U15G A19U A91U

Polymerase ribozyme fitness (log ratio), 0.263:
U15C U55G

Polymerase ribozyme fitness (log ratio), 0.901:
U15G G92U A147U

Polymerase ribozyme fitness (log ratio), -1.78:
U15G C27U G84A
